Out of some 200,000 compounds screened, about 10 (0.005%) were called active. Inconclusive results, whose numbers are uncertain, are shown with a selection of clear calls. Calls come from the whole dose curve; as a rule, active = well fitted inhibition curve with a large enough effect; inconclusive = small, poorly fitted or top-dose-only effect, or effect the other way, or another doubt; inactive = no such curve, though single readings can be large or run the other way. Potencies beside an inconclusive call are fits to weak or partial responses and may not hold up.
Biological target: Lysosomal alpha-glucosidase (Homo sapiens) (UniProt P10253)
Experiment: qHTS Assay for Inhibitors of Human alpha-Glucosidase as a Potential Chaperone Treatment of Pompe Disease;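 for activity change, negative = inhibition: plate controls were uninhibited enzyme wells for no effect and no-enzyme background for full effect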
Details: purified human GAA, 4-MU-alpha-glucoside fluorescence; activity change, negative = inhibition: at 76.9 µM (top of the series) unless noted
Procedure, shortened: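 Enzyme (4 nM final) mixed with compound (up to 77 uM), then 4-MU-alpha-D-pyranoside (400 uM final) added; 20 min at room temperature, pH 5.0. Reaction stopped at pH 10, fluorescence read, AC50 derived by Hill fit.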
Potency is the fitted concentration of half-maximal effect; tags give direction and shape of the fitted curve.

Potency, inconclusive:
CC1CC1C(=O)Nc1nc(-c2cccs2)c(-c2cccs2)s1 (centres undefined) 0.708 µM [inhibitor, full curve, poor fit]
O=C(Cn1ccc([N+](=O)[O-])n1)N1CCCc2ccccc21 4.47 µM [inhibitor, partial curve, poor fit]
Cc1ccc(C(=O)N/C(=C\c2ccccc2)C(=O)NCC2CCCO2)cc1 (centres undefined) 6.31 µM [inhibitor, single point]
Cc1ccc(C)c(C2C(C#N)=C(N)Oc3cc(C)oc(=O)c32)c1 (centres undefined) 11.2 µM [inhibitor, single point]
Cc1csc(NC(=O)C(NS(=O)(=O)c2ccc(Br)s2)c2ccccc2)n1 (centres undefined) 11.2 µM [inhibitor, full curve]
COc1ccc(NC(=S)NCC2CCCO2)c(OC)c1 (centres undefined) 7.08 µM [inhibitor, full curve, poor fit]
COc1cc(C(=O)N2CCN(C(=O)C3CC3)CC2)cc(OC)c1OC 56.2 µM [inhibitor, single point]
COC(=O)c1c(NC(=O)c2c(Cl)cnn2C)sc(C)c1C 44.7 µM [activator, partial curve]
COCCCN(C(=O)Nc1ccc(C)c(C)c1)C(C)c1ccccn1 (centres undefined) 35.5 µM [inhibitor, single point]
CN1CC=C2C(C#N)=C(N)C(C#N)(C#N)[C@H](c3ccoc3)[C@H]2C1 39.8 µM [activator, single point]
O=C(Nc1cccc(S(=O)(=O)N2CCOCC2)c1)c1c2c(nc3ccccc13)CCC2 25.1 µM [inhibitor, partial curve]
N#Cc1nc(-c2ccccc2)oc1NCc1ccco1 39.8 µM [inhibitor, single point]
CSc1ncccc1C(=O)OCn1nnc2ccccc2c1=O 3.16 µM [inhibitor, full curve]
CCOC(=O)N1CCC(NC(=O)C2CCN(S(=O)(=O)c3cccc4cccnc34)CC2)CC1 5.62 µM [inhibitor, single point]
Cc1ccc(C2C3=C(CC(C)(C)CC3=O)N(CCN3CCOCC3)C3=C2C(=O)CC(C)(C)C3)cc1 25.1 µM [activator, partial curve]
O=C(NCCCN1CCOCC1)c1ccc(N2CCCC2)c([N+](=O)[O-])c1 0.178 µM [activator, full curve, poor fit]
COc1cccc(NC(=O)C2C3C=CC(O3)C2C(=O)NCc2cccnc2)c1 (centres undefined) 4.47 µM [inhibitor, full curve, poor fit]
CCOC(=O)C1=C(O)/C(=C/c2ccc(CNC(=O)C(=O)Nc3ccc(C)cc3)o2)N=C1C 5.01 µM [inhibitor, full curve]
CCCC(=O)Nc1ccc(N2CCN(S(C)(=O)=O)CC2)cc1 31.6 µM [inhibitor, single point]
COc1ccc(N2CCN(C(=O)c3ccc4ccccc4n3)CC2)cc1 50.1 µM [inhibitor, single point]
CCOC(=O)C(C#N)c1ccccn1 (centres undefined) 1.41 µM [inhibitor, full curve, poor fit]
CCOC(=O)/C(C)=C1\NC(C)(C)Cc2ccccc21 39.8 µM [inhibitor, single point]
COc1ccc(C(=O)Nc2ccc(S(=O)(=O)N3CCCCC3C)cc2)c(OC)c1OC (centres undefined) 50.1 µM [inhibitor, single point]

Potency, inactive:
Cc1ccc(NCc2n[nH]c(=S)n2-c2cccc(Cl)c2)cc1
CCOc1ccc(NC(=O)N(CCCN2CCOCC2)Cc2cccnc2)cc1
CC(=O)Nc1sc2c(c1C(c1ccccn1)N1CCN(C)CC1)CCCC2 (centres undefined)
Oc1ccc(C(c2nnnn2C2CCCCC2)N2CCOCC2)cc1 (centres undefined)
Cn1c(=O)c2c(nc(N/N=C/c3cccs3)n2C)n(C)c1=O

Activity change, negative = inhibition, inconclusive:
N#CCN1C(=O)C2CCCN2c2ccc(S(=O)(=O)N3CCOCC3)cc21 (centres undefined) -17.5% [inhibitor]
CCCCN(C)C(=O)c1nc2ccccn2c1CNC1CCC1 14.6% [activator]
O=C(Cc1ccc(F)cc1)Nc1cccc(-c2cn3c(n2)SCC3)c1 -19.1% [inhibitor]
C/C(CC(=O)N1CCN(C=O)CC1)=N\NC(=O)c1cccc([N+](=O)[O-])c1 7.78% [activator]
O=C(NCC1CCCO1)Nc1cc(Cl)cc(Cl)c1 (centres undefined) 12.8% [activator]
CC1CCC(C(C)C)C(OC(=O)Cn2c(-c3ccc(F)cc3)[n+](C)c3ccccc32)C1 (centres undefined) -15.2% [inhibitor]
O=S(=O)(c1ccc(N2CCCC2)nc1)N1CCOCC1 -15.1% [inhibitor]
CCOc1ccccc1C(=O)NN1C(=O)CCC1=O -17.2% [inhibitor]
COc1ccc2c(c1)C(NC(C)=O)C(=O)N2CCc1ccccc1 (centres undefined) 25.3% [activator]
O=C(CSCc1ccccc1Br)N/N=C/c1ccccc1C(=O)O 16.4% [activator]
CCn1nnnc1NC(=O)c1cc(OC)c(OC)c(OC)c1 15.4% [activator]
O=C(c1ccc(Cl)cc1)c1cc(-c2ccccn2)c(N2CCOCC2)s1 -15.5% [inhibitor]
O=C(Cn1cnc2scc(-c3ccccc3)c2c1=O)NCc1ccco1 13.9% [activator]
CCOC(=O)CNC(=O)c1ccc(Cl)s1 16.6% [activator]
CCNS(=O)(=O)c1ccc(NC(=S)NCc2ccco2)cc1 -15.6% [inhibitor]

Activity change, negative = inhibition, inactive:
O=C(Nc1ccc(S(=O)(=O)Nc2nccs2)cc1)c1cc(=O)[nH]c2ccccc12 -5.51% [at 15.4 µM]

Reference: PubChem BioAssay AID1466 (National Center for Advancing Translational Sciences (NCATS), 2008)
